Assay results taken from the BET-seq Pho4 binding data (Le et al. 2018).
The other results are listed elsewhere or left out. These are noisy estimates, calculated here from bound and input reads.

What follows are sequences tested against T1, Pho4 (S. cerevisiae) (UniProt P07270) (assay: relative binding free energy (BET-seq); higher = weaker binding). Details: reference: library average.
T1 sequence: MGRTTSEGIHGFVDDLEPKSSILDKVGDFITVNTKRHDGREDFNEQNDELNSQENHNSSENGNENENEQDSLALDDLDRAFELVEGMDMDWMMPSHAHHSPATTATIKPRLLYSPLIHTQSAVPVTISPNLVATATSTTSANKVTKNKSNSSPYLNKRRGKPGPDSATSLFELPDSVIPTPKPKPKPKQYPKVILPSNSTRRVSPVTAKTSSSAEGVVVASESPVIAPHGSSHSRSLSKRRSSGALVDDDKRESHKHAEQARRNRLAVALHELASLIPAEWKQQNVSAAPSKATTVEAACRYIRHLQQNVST

Row | Sequence | relative binding free energy [kcal/mol]
1 | TATATCACGTGGTGGT | 0.07
2 | TTTCGCACGTGAAGGT | 0.12
3 | GGAAACACGTGGATGT | 0.22
4 | CAGGTCACGTGGGTCG | -0.02
5 | TGGGTCACGTGGTGAT | 0.13
6 | AATGTCACGTGAAGTA | 0.2
7 | AAGAGCACGTGGGGAG | -0.31
8 | TGTTGCACGTGTGCGG | -0.06
9 | AGTTCCACGTGGGGTT | 0.07
10 | TTATTCACGTGAATGC | 0.28
11 | TGTAGCACGTGTCATT | -0.12
12 | AATGGCACGTGGATAA | -0.05
13 | GTATCCACGTGGGTTA | -0.02
14 | GTATACACGTGCTGGT | 0.04
15 | ATTCTCACGTGGGGAT | -0.02
16 | AGAAGCACGTGTGTAA | -0.02
17 | GCATTCACGTGGAGTT | 0.33
18 | GCGAGCACGTGGGGTA | -0.19
19 | TAGGTCACGTGTATCG | 0.13
20 | ATGGGCACGTGAGCGG | -0.01
21 | AGTGGCACGTGGCGTT | -0.15
22 | GTATTCACGTGGTTAC | 0.18
23 | TTGGGCACGTGCGCGA | -0.23

Row | Sequence | relative binding free energy [kcal/mol]
24 | GTTGTCACGTGCACGT | 0.12
25 | GGGCGCACGTGAAGGC | 0.25
26 | CGCTGCACGTGAGGGA | 0.29
27 | ATTTTCACGTGGGCGA | 0.07
28 | TTCATCACGTGGTGTA | 0.16
29 | TTTATCACGTGAACGG | 0.32
30 | ATTGGCACGTGGGCTG | -0.22
31 | AAATACACGTGGTGAG | 0.14
32 | CGTTTCACGTGAGTGT | 0.34
33 | AGTTTCACGTGGAATT | 0.33
34 | GATCGCACGTGTGGAG | 0.13
35 | ATTTGCACGTGGTAGT | 0.04
36 | CGTCGCACGTGTTGTG | -0.02
37 | TAGGACACGTGGGAGC | -0.02
38 | AGTAGCACGTGTCAGT | -0.09
39 | GTAGACACGTGTTGAT | -0.03
40 | GTTATCACGTGTTGCA | 0.14
41 | CGAGTCACGTGAGGAG | 0.3
42 | ATTATCACGTGATGAG | 0.18
43 | TGAGGCACGTGGTAGC | -0.16
44 | TGAGTCACGTGTTTAT | 0.2
45 | TAATGCACGTGCGTTT | -0.09
46 | TGGGGCACGTGATTGC | 0.02

Row | Sequence | relative binding free energy [kcal/mol]
47 | AGTATCACGTGAGTTT | 0.41
48 | TCGTTCACGTGGATGT | 0.26
49 | AGTTTCACGTGTATTA | 0.21
50 | ATTGTCACGTGGAGGT | 0.09
51 | GTAGCCACGTGTTGGA | -0.06
52 | ATTGACACGTGAGGGA | 0.27
53 | ATCGGCACGTGGGGGT | -0.22
54 | TAAGGCACGTGCATGT | -0.16
55 | AAATTCACGTGGGCTG | 0.11
56 | GGGCGCACGTGATGCG | 0.18
57 | CTTGACACGTGGTGGG | -0.12
58 | ATGGACACGTGAGGGT | 0.25
59 | GTTGCCACGTGGTCTG | -0.19
60 | TGAGACACGTGGGTTT | 0
61 | TTGGACACGTGTTCGT | 0.04
62 | TAGGTCACGTGTTTTT | 0.32
63 | GGGTTCACGTGTCGTT | 0.44
64 | TTGTGCACGTGGAAAA | 0.2
65 | GGGTTCACGTGTACGG | 0.3
66 | TGGGACACGTGATTGA | 0.17
67 | CTGTACACGTGAAGGT | 0.25
68 | CGATTCACGTGATGGT | 0.3
69 | GGTCACACGTGGTAAG | 0.07

Row | Sequence | relative binding free energy [kcal/mol]
70 | TGGGACACGTGGTCGC | 0.01
71 | GAGGGCACGTGCGGAG | -0.15
72 | ATAGTCACGTGTGATA | 0.19
73 | AGGTGCACGTGAGCGT | -0.04
74 | GTACACACGTGTGGTG | 0.03
75 | GGCCACACGTGGGGTT | 0
76 | GACCACACGTGTGGGG | 0.25
77 | GGGTCCACGTGTAATT | 0.2
78 | AGGGTCACGTGCGGCG | 0.02
79 | GTGTTCACGTGGTTGA | 0.3
80 | GAGTACACGTGAGGGT | 0.31
81 | TTAGGCACGTGGCACG | -0.16
82 | TGGGGCACGTGGAACA | 0.01
83 | GAGGGCACGTGGCGTC | -0.15
84 | GTATACACGTGAGGAT | 0.18
85 | TAATTCACGTGAAGTA | 0.34
86 | AAGAGCACGTGATGGG | 0.01
87 | GGTCACACGTGTGTTT | 0.25
88 | GTTGGCACGTGCATTT | -0.05
89 | TTCTACACGTGGATGT | 0.12
90 | GTAAACACGTGATGTA | 0.24
91 | AGAAACACGTGCGGGT | 0.04
92 | GTGTTCACGTGTTTAG | 0.25

Row | Sequence | relative binding free energy [kcal/mol]
93 | TTTAGCACGTGTGACA | 0.02
94 | AGTTGCACGTGATCTT | 0.07
95 | TCTGACACGTGGCGGG | -0.07
96 | ACTTTCACGTGGTATA | 0.14
97 | TCTTGCACGTGGGTGA | -0.14
98 | ATATGCACGTGTGGGC | -0.14
99 | GGTTACACGTGTGTAC | 0.14
100 | TATGACACGTGTAATG | 0.2
101 | GGGTGCACGTGGGCCC | -0.05
102 | GTGGACACGTGTGTGT | 0.1
103 | TGTATCACGTGTAATA | 0.13
104 | AGCGTCACGTGGGGGG | -0.13
105 | CAGGTCACGTGGAGTA | 0.06
106 | GTTATCACGTGGTTTT | 0.22
107 | TTTGACACGTGTAAAA | 0.16
108 | TGTTGCACGTGAGGAA | 0.22
109 | TTCTACACGTGTTTTT | 0.17
110 | ATGTGCACGTGTTGAG | -0.01
111 | AGTGACACGTGGTATG | -0.06
112 | AGGGACACGTGCGTCT | 0.03
113 | GTTGGCACGTGCGTTG | -0.08
114 | ATGGTCACGTGTGTTA | 0.16
115 | TATCTCACGTGGTGTG | 0.09
